According to PubChem BioAssay AID493208 (National Center for Advancing Translational Sciences (NCATS), 2011):
About 340 (0.77%) of roughly 44,000 compounds were called active. Inconclusive results (about 5%) are left out. The call rests on the fitted dose curve; in most records, active means well fitted inhibition curve with a large enough effect; inconclusive means small, poorly fitted or top-dose-only effect; inactive means flat fitted curve, though single readings scatter. This is one part of the list.

assay: Acumen qHTS Assay for Inhibitors of the mTORC1 Signaling Pathway in MEF (Tsc2-/-, p53-/-) Cells: Sytravon; settings: phospho-rpS6 immunofluorescence/PI, 24 h; series mostly up to 38.3 µM; activity change, negative = inhibition: at the top concentration;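 further: plate controls were DMSO for no effect and rapamycin for full effect; nearly all actives have a fitted effect of over 50% in size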
How it was run: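 Immunofluorescence of rpS6 phosphorylation in Tsc2-/-, p53-/- MEFs after 24 h compound exposure, normalized to propidium iodide signal. Activity is expressed as % positive cells, thresholded with 7.5 nM rapamycin.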

Activity change, negative = inhibition, inactive:
CC1CCc2c(sc3nnn(Cc4ccccc4Cl)c(=O)c23)C1 (stereo not drawn) -0.189%
CCOC(=O)c1cc(C)n(CC2CCC(C(=O)Nc3cccc(C(C)=O)c3)CC2)c1C (stereo not drawn) -0.791%
CCOc1ccccc1CNCc1c(C(=O)O)n(Cc2ccccc2)c2cc(OC)ccc12 -10.6%
CCOc1ccccc1Oc1ncnc2c1oc1ccccc12 -2.1%
CC1CCC(NC(=O)c2ccc3c(c2)N(Cc2ccccc2F)C(=O)c2ccccc2S3(=O)=O)CC1 (stereo not drawn) -10.2%
COc1ccccc1OCc1nc2ccccc2n1Cc1ccccc1 -6.05%
CCOc1ccccc1C1C(C(=O)Nc2ccccc2)=C(C)Nc2nc(-c3ccccc3)nn21 (stereo not drawn) 0.783%
CCCCn1c(SCC(=O)c2ccccc2)nc2sc3c(c2c1=O)CCCC3 -6.77%
CCOc1ccccc1NCc1nnc2n1CCCCC2 3.44%
Cc1ccc(-c2nnc3c4ccccc4c(-c4ccccc4)nn23)cc1 -7.63%
COc1ccc(N2CCN(C(=O)c3cnc(N4CCOCC4)c4ccccc34)CC2)cc1 -13.6%
COc1ccc(C)cc1NC(=O)c1nnn(CC(=O)Nc2c(C)cccc2C)c1N -4.73%
Cc1ccc(C)c(S(=O)(=O)c2nnn3c2nc(NC2CCCC2)c2sccc23)c1 0.0273%
CCCCN(CC)C(=O)c1ccc2c(c1)NC(=O)c1ccccc1S2 -6.39%
CCc1cccc(NC(=O)c2cc3c(=O)oc4ccc(C)cc4c3s2)c1 8.14%
COc1ccc(CNC(=O)C(CC(C)C)NS(=O)(=O)c2ccc3c(c2)oc(=O)n3C)cc1 (stereo not drawn) 0.344%
Cc1ccc(S(=O)(=O)c2cn(Cc3ccccc3)c3cc(N4CCCC4)c(F)cc3c2=O)c(C)c1 -7.49%
CSc1nnc(NC(=O)c2cc(=O)c3cc(C)c(C)cc3o2)s1 -0.132%
CCOc1c(CNCCSc2nnnn2C)cccc1OC -19.3%
COc1ccc(OC)c([C@@H]2Nc3ccc(C(=O)O)cc3[C@@H]3C=CC[C@@H]32)c1 -0.233%
Cc1cccc(C)c1NC(=O)C(=O)NCC(c1ccc2c(c1)OCO2)N1CCN(C)CC1 (stereo not drawn) 1.22%
Cc1ccc(Cn2c(=O)n(Cc3ccc(C(=O)NC4CCN(Cc5ccccc5)CC4)cc3)c(=O)c3ccccc32)cc1 -28%
CCc1cccc(NC(=O)C2CCCN2S(=O)(=O)c2ccc3nc(-c4ccccc4)[nH]c3c2)c1 (stereo not drawn) -8.82%
CC(=O)c1ccc(NC(=O)CCn2cccn2)cc1 -5.01%
O=C(c1ccc(Br)cc1)N(Cc1ccco1)c1ccccn1 2.44%
CN1C(=O)Cc2cc(S(=O)(=O)NCc3ccccc3Cl)ccc21 -9.87%
CCc1ccc(NC(=O)Cn2c(=O)n(-c3cccc(OC)c3)c(=O)c3c(C)c(C(=O)N(C)C)sc32)cc1 1.72%
Cc1ccc(-n2c(C)nc3c(cnn3-c3ccccc3)c2=O)cc1 -4.46%
CCCc1ccc(OCc2ccc(C(=O)Nc3ccccc3C(=O)OC)o2)cc1 -7.71%
CCc1ccc(CNC(=O)c2cccc(-n3c(C)nc4cccnc43)c2)cc1 -13%
Cc1ccc2oc(C(=O)N3CCC(c4nc5ccccc5s4)CC3)c(C)c2c1 -22.4%
COc1ccc(N(CC(=O)N2CCCCC2)S(=O)(=O)c2ccc(OC)c(OC)c2)cc1 3.84%
COc1ccc(C2=C(N3CCN(c4cccc(C)c4C)CC3)c3ccccc3C2=O)cc1 0.771%
Cc1ccc(NC(=O)CC2Oc3ccccc3NC2=O)cc1C (stereo not drawn) 0.753%
COc1ccc(CCNC(=O)CN2C(=O)COc3ccc(S(=O)(=O)N4CCCC4)cc32)c(OC)c1 1.75%
Cc1c(C(=O)NCc2cccc(Cl)c2)sc2nc3n(c(=O)c12)CCCC3 7.42%
COc1ccc(-c2cnnn2-c2ccc(NC(=O)c3ccccc3OC)cc2)cc1 -25.3%
Cc1c(C(=O)NCc2cccc(Br)c2)oc2ccc3c(c12)C(=O)CC(C)(C)O3 -3.12%
CCN(CC)CCCNC(=O)c1ccc(Cn2c(SCc3ccccc3)nc3cccnc32)cc1 -6.78%
Cn1c(=O)n(Cc2c(F)cccc2Cl)c(=O)c2c1nc1n2CCN1c1ccc(F)cc1 -17.5%
Nc1nn(-c2ccccc2)nc1C(=O)OCc1ccc(Cl)cc1 -2.84%
COc1ccc(-c2nc3sc(CCNC(=O)C(=O)Nc4cccc(NC(C)=O)c4)c(C)n3n2)cc1 -0.0876%
COc1c(C)cccc1C(=O)Nc1ccc(-c2nc3ccccc3s2)c(Cl)c1 14.8%
CC1=C(C(=O)NCc2ccccc2F)C2(CCCCC2)OC1=O -1.72%
Cc1ccc(CCNC(=O)C2CCCN(c3nnc(C)c4c(C)n(-c5ccccc5)nc34)C2)cc1 (stereo not drawn) -15.5%
COc1ccc(-c2cn3nc(N4CCCC(C(=O)NCc5ccc(Cl)cc5)C4)sc3n2)cc1 (stereo not drawn) -7.36%
O=C(Nc1ccccc1Cl)N1CCC(CN2CCCC2)CC1 5.17%
CC1=C(c2ccc(F)cc2)S(=O)(=O)N=C1N1CCC(C(=O)NCCc2cccc(C)c2)CC1 -3.46%
COc1cccc(-c2nc(CS(=O)(=O)CC(=O)NCc3cccc(Cl)c3)c(C)o2)c1 -10.6%
Cc1ccc(CSc2ncc(Cl)c(C(=O)Nc3nnc(C)s3)n2)cc1 -0.393%
O=C(NCc1ccc2c(c1)CCN2C(=O)c1ccccc1)Nc1cccc(C(F)(F)F)c1 -20%
Cc1ccccc1OCCSc1nc2ccc(NC(=O)c3cccc(F)c3)cc2s1 -8.38%
COc1ccc(Cn2ccnc2SCC(=O)Nc2nc3ccccc3s2)cc1 2.58%
COc1cc2ncc3c(-c4ccc(C)cc4)nn(-c4ccc(F)cc4F)c3c2cc1OC 11.3%
Cc1ccc(NC(=O)CN2C(=O)c3cccnc3Oc3ccc(Cl)cc32)cc1 0.575%
CCOC(=O)c1c(C)n(-c2ccccc2)c2ccc(OC(=O)COc3ccc(Cl)cc3)cc12 -17%
Cc1ccccc1-c1nc(CN2CCC(C(=O)NCc3ccc(F)cc3)CC2)c(C)o1 -7.27%
CC(=O)c1ccc(NC(=O)c2ccc3c(c2)N(Cc2cccc(Cl)c2)C(=O)c2ccccc2S3=O)cc1 (stereo not drawn) -0.0939%
Cc1c(C(=O)NCc2ccccc2Cl)sc2ncnc(N(C)C3CCCCC3)c12 -5.15%
Cc1ccn2c(Nc3ccc4c(c3)OCCO4)c(-c3ccc(C)o3)nc2c1 -8.24%
Cc1cc(Nc2ccccc2C)n2nc(Cc3ccc(Cl)cc3)nc2n1 -0.908%
COc1ccc(NC(=O)c2cc3c(s2)-c2c(C)cccc2OC3)cc1Cl -2.81%
CCNC(=O)C1CCN(S(=O)(=O)c2ccc3c(c2)CCCN3C(C)=O)CC1 -0.277%
CCCN(CCC)c1ccc(C2N=C(N)Nc3nc4ccccc4n32)cc1 (stereo not drawn) -3.53%
Cn1c(=O)oc2cc(S(=O)(=O)CCC(=O)N3CCN(c4cccc(Cl)c4)CC3)ccc21 0%
O=C(NCc1ccccc1)c1ccc(NC(=O)N2CC3CCCN3c3ccccc32)cc1 (stereo not drawn) -8.27%
Cc1ccc(S(=O)(=O)c2nnn3c2nc(NCc2ccc4c(c2)OCO4)c2sccc23)cc1C 4.35%
CCc1ccc(NC(=O)CN2C(=O)c3cccc4cccc2c34)cc1 1.18%
CCCCNC(=O)CCCCCn1c(=O)[nH]c2ccccc2c1=O -4.99%
COc1ccc(Br)cc1CNC(=O)c1cnc2sc(N3CCC(C)CC3)nn2c1=O -3.7%
Cc1ccc(C)c(N2CCN(S(=O)(=O)c3cc(C(=O)Nc4ccc(Oc5ccccc5)cc4)ccc3F)CC2)c1 0%
COc1cc(Cl)c(NC(=O)c2cc3ccccn3n2)c(OC)c1 6.22%
Cc1cccc(NC(=O)C2CCCN2S(=O)(=O)c2ccc3nc(-c4ccccc4)[nH]c3c2)c1 (stereo not drawn) -3.26%
Cc1ccc2c(c1)c1c(c(=O)n(-c3ccccc3)c(=O)n1CC(=O)NCC1CCCO1)n2C (stereo not drawn) 1.21%
O=c1n(Cc2ccccc2Cl)c2ccccc2c2nc(-c3ccccc3)nn12 -1.96%
Cc1nn2c(=O)cc(COC(=O)c3ccc(NC(=O)COc4ccc(C)c(C)c4)cc3)nc2s1 -9.67%
Cc1ccc(C)c(NC(=O)n2ncc3cc(Cl)ccc32)c1 0.677%
COC(=O)C(C)Sc1ccc2nnc(CCNS(=O)(=O)c3ccc(C)cc3)n2n1 (stereo not drawn) 3.24%
Cc1ncc(CO)c2c1Oc1nc(-c3ccccc3Cl)nc(SCc3ccccc3F)c1C2 0.497%
COCCCNC(=O)Cn1cnc2sc(C)c(S(=O)(=O)N3CCC(C)CC3)c2c1=O 0.798%
CC(C)NC(=O)c1ccc(Cn2c(SCC(N)=O)nc3ccccc3c2=O)cc1 -0.84%
Cc1ccc(CCNC(=O)c2ccc3nc(N4CCC(C)CC4)sc3c2)cc1 1.69%
CCOc1ccc(C2CC(=O)Nc3nc(SCc4ccccc4C)[nH]c(=O)c32)cc1OC (stereo not drawn) 2.44%
COc1cc(Cl)c(C)cc1Nc1nc2ccccc2c2nnc(C)n12 6.97%
O=C(NCc1cccnc1)c1nn(-c2ccc(Cl)cc2)nc1CO 0.965%
COc1ccc2nc(N(Cc3cccnc3)C(C)=O)sc2c1 -1.46%
COc1ccc(C2CC(=O)N3CN(C4CCCCC4)CSC3=C2C#N)c(OC)c1 (stereo not drawn) 9.09%
CCC(Oc1ccccc1-c1nnc(-c2ccccc2)o1)C(=O)Nc1ccc(C(C)=O)cc1 (stereo not drawn) 1.47%
COC(=O)c1ccc(NC(=O)CSc2ccc(-c3sc(-c4ccccc4)nc3C)nn2)cc1 2.32%
COc1ccccc1C1CC(=O)NC(C)=C1C(=O)OC1CCCCCC1 (stereo not drawn) 0.771%
O=C(NC1CC(=O)N(c2ccc(F)cc2)C1)c1ccco1 (stereo not drawn) -4.04%
COc1ccc(Nc2ncc3c(n2)CCN(Cc2ccccc2C)C3)c(OC)c1 0%
O=C(Nc1cccc(C(F)(F)F)c1)c1ccc2c(c1)nnn2C1CCCC1 -12%
CCc1ccc(-n2c(=O)c3c4c(sc3n(Cc3ccccc3C#N)c2=O)CCC4)cc1 -1.33%
COc1ccc(S(=O)(=O)NCCc2nnc3ccc(SCC(=O)Nc4ccccc4C)nn23)cc1 -0.914%
Cn1cc(CN(C(=O)Nc2ccccc2)C2CCCCC2)c2ccccc21 -6.39%
COc1ccc(-c2nc3sc(CCNC(=O)c4ccco4)c(C)n3n2)cc1 1.54%
CCS(=O)(=O)Nc1ccc(-c2cn3ccsc3n2)cc1 7.01%
